{"source": "ChEMBL document CHEMBL5606460", "about": "“ASAP - DENV-2 NS2B-NS3 protease fluorescence single point” (2024)", "target": "Genome polyprotein (dengue virus type 2) (UniProt P29990)", "key": {"[1]": {"conditions": "Thailand/16681/1984, Concentration 25.0 uM, Number of replicates 1.0"}}, "note": "Among all 2,000 compounds or so, about 110 (5.5%) showed an effect of 50% or more. The list shows a part of the results. Residues, ends and D or L forms follow the SMILES beside them. *: point of attachment. pNA = O=[N+]([O-])c1ccc(N*)cc1", "data": [{"smiles": "CCn1ccnc(N2C[C@@H](O)[C@H](c3c[nH]c4ccccc34)C2)c1=O", "values": [{"measurement": "inhibition", "setting": "Thailand/16681/1984, Concentration 49.5 uM, Number of replicates 2.0, Standard deviation 0.09598084952646493 %", "result": 9.07, "unit": "%"}, {"measurement": "inhibition", "setting": "Thailand/16681/1984, Concentration 99.01 uM, Number of replicates 2.0, Standard deviation 0.03676958499048013 %", "result": 18.8, "unit": "%"}, {"measurement": "inhibition", "setting": "Thailand/16681/1984, Concentration 198.0 uM, Number of replicates 2.0, Standard deviation 0.07114927508299852 %", "result": 33.4, "unit": "%"}]}, {"smiles": "CN(CC(N)=O)Cc1cc(=O)c2cccc(Cl)c2[nH]1", "values": [{"measurement": "inhibition", "setting": "Thailand/16681/1984, Concentration 49.95 uM, Number of replicates 2.0, Standard deviation 6.015777148585942 %", "result": -8.14, "unit": "%"}, {"measurement": "inhibition", "setting": "Thailand/16681/1984, Concentration 99.9 uM, Number of replicates 2.0, Standard deviation 6.996333020085958 %", "result": -8.34, "unit": "%"}]}, {"smiles": "C[C@@H](CS(C)(=O)=O)NC(=O)c1cc(Cl)ccc1NS(=O)(=O)c1ccc(Oc2ccccc2Cl)cc1", "values": [{"measurement": "inhibition", "setting": "Thailand/16681/1984, Concentration 49.5 uM, Number of replicates 2.0, Standard deviation 0.5989303195749703 %", "result": 51.1, "unit": "%"}, {"measurement": "inhibition", "setting": "Thailand/16681/1984, Concentration 99.01 uM, Number of replicates 2.0, Standard deviation 0.4213875631597994 %", "result": 57, "unit": "%"}, {"measurement": "inhibition", "setting": "Thailand/16681/1984, Concentration 198.0 uM, Number of replicates 2.0, Standard deviation 0.24651523106627876 %", "result": 43, "unit": "%"}]}, {"smiles": "Cc1cc(CO)c2cccc(Cc3cccc(NC(=O)[C@@H](N)CC(N)=O)c3)c2n1", "values": [{"measurement": "inhibition", "setting": "Thailand/16681/1984, Concentration 49.95 uM, Number of replicates 2.0, Standard deviation 1.6450461196958641 %", "result": 12.4, "unit": "%"}, {"measurement": "inhibition", "setting": "Thailand/16681/1984, Concentration 99.9 uM, Number of replicates 2.0, Standard deviation 0.8834505440552805 %", "result": 30, "unit": "%"}]}, {"smiles": "NCc1cccc(CNC(=O)[C@@H](NC(=O)OCc2ccccc2)c2ccc(OCc3ccccc3)cc2)c1", "values": [{"measurement": "inhibition", "setting": "Thailand/16681/1984, Concentration 49.5 uM, Number of replicates 2.0, Standard deviation 0.05305782465339428 %", "result": 100, "unit": "%"}, {"measurement": "inhibition", "setting": "Thailand/16681/1984, Concentration 99.01 uM, Number of replicates 2.0, Standard deviation 0.03132758391075349 %", "result": 99.6, "unit": "%"}, {"measurement": "inhibition", "setting": "Thailand/16681/1984, Concentration 198.0 uM, Number of replicates 2.0, Standard deviation 0.04155072348555595 %", "result": 99.5, "unit": "%"}]}, {"smiles": "NC(=O)c1ccccc1NS(=O)(=O)c1ccc(Oc2ccccc2Cl)cc1", "values": [{"measurement": "inhibition", "setting": "Thailand/16681/1984, Concentration 49.5 uM, Number of replicates 2.0, Standard deviation 0.6673279112123895 %", "result": 5.67, "unit": "%"}, {"measurement": "inhibition", "setting": "Thailand/16681/1984, Concentration 99.01 uM, Number of replicates 2.0, Standard deviation 2.0636931261780913 %", "result": 38.8, "unit": "%"}, {"measurement": "inhibition", "setting": "Thailand/16681/1984, Concentration 198.0 uM, Number of replicates 2.0, Standard deviation 0.3870011295715193 %", "result": 81.3, "unit": "%"}]}, {"smiles": "Cn1cc(NC(=O)c2ccccc2C(F)(F)F)c(-c2ccc(CO)cc2)n1", "values": [{"measurement": "inhibition", "setting": "Thailand/16681/1984, Concentration 49.5 uM, Number of replicates 2.0, Standard deviation 2.3161186941047496 %", "result": -4.04, "unit": "%"}, {"measurement": "inhibition", "setting": "Thailand/16681/1984, Concentration 99.01 uM, Number of replicates 2.0, Standard deviation 3.5021876776391307 %", "result": -2.8, "unit": "%"}, {"measurement": "inhibition", "setting": "Thailand/16681/1984, Concentration 198.0 uM, Number of replicates 2.0, Standard deviation 4.667974048773386 %", "result": -3.05, "unit": "%"}]}, {"smiles": "CSCC[C@H](N)C(=O)N1CCC[C@H]1C(=O)Nc1ccc([N+](=O)[O-])cc1", "note": "(H-Met-Pro-pNA)", "values": [{"measurement": "inhibition", "setting": "Thailand/16681/1984, Concentration 49.5 uM, Number of replicates 2.0, Standard deviation 0.9447421770337631 %", "result": 6.96, "unit": "%"}, {"measurement": "inhibition", "setting": "Thailand/16681/1984, Concentration 99.01 uM, Number of replicates 2.0, Standard deviation 0.9399016957759839 %", "result": 14.5, "unit": "%"}, {"measurement": "inhibition", "setting": "Thailand/16681/1984, Concentration 198.0 uM, Number of replicates 2.0, Standard deviation 0.15884978616361917 %", "result": 27.1, "unit": "%"}]}, {"smiles": "Cc1ccccc1-c1noc(C)c1C(=O)N1CCC(n2cc(CO)nn2)CC1", "values": [{"measurement": "inhibition", "setting": "Thailand/16681/1984, Concentration 49.5 uM, Number of replicates 2.0, Standard deviation 2.30419273755641 %", "result": -0.938, "unit": "%"}, {"measurement": "inhibition", "setting": "Thailand/16681/1984, Concentration 99.01 uM, Number of replicates 2.0, Standard deviation 2.46249596338854 %", "result": -1.41, "unit": "%"}, {"measurement": "inhibition", "setting": "Thailand/16681/1984, Concentration 198.0 uM, Number of replicates 2.0, Standard deviation 2.8430635029754168 %", "result": -1.49, "unit": "%"}]}, {"smiles": "O=Cc1ccc(N2CCC(C(=O)N3CCN(c4ncccc4[N+](=O)[O-])CC3)CC2)cc1", "values": [{"measurement": "inhibition", "setting": "[1]", "result": 14.8, "unit": "%"}]}, {"smiles": "NC(=O)c1c(NC(=O)C2CCN(c3ccc(C=O)cc3)CC2)sc2c1CCCC2", "values": [{"measurement": "inhibition", "setting": "[1]", "result": 38.6, "unit": "%"}]}, {"smiles": "C[C@H](NC(=O)C1CCN(c2ccc(C=O)cc2)CC1)c1cccc2ccccc12", "values": [{"measurement": "inhibition", "setting": "[1]", "result": 4.86, "unit": "%"}]}, {"smiles": "CC(C)Cn1cccc(C(=O)Nc2ccncc2)c1=O", "values": [{"measurement": "inhibition", "setting": "Thailand/16681/1984, Concentration 49.5 uM, Number of replicates 2.0, Standard deviation 1.6949837288603 %", "result": 4.6, "unit": "%"}, {"measurement": "inhibition", "setting": "Thailand/16681/1984, Concentration 99.01 uM, Number of replicates 2.0, Standard deviation 0.80587134576346 %", "result": 8.75, "unit": "%"}, {"measurement": "inhibition", "setting": "Thailand/16681/1984, Concentration 198.0 uM, Number of replicates 2.0, Standard deviation 0.4281674737986559 %", "result": 16, "unit": "%"}]}, {"smiles": "Cc1cc(CO)c2cccc(Cc3ccccc3C(=O)N[C@@H](C)C(N)=O)c2n1", "values": [{"measurement": "inhibition", "setting": "Thailand/16681/1984, Concentration 49.95 uM, Number of replicates 2.0, Standard deviation 0.6000743957777985 %", "result": -0.871, "unit": "%"}, {"measurement": "inhibition", "setting": "Thailand/16681/1984, Concentration 99.9 uM, Number of replicates 2.0, Standard deviation 0.19044272663259726 %", "result": 7.93, "unit": "%"}]}, {"smiles": "O=Cc1ccc(N2CCC(C(=O)Nc3cccc4ccc(O)cc34)CC2)cc1", "values": [{"measurement": "inhibition", "setting": "[1]", "result": 35.2, "unit": "%"}]}, {"smiles": "O=Cc1ccc(N2CCC(C(=O)N3CC(Oc4ccc(Cl)cc4)C3)CC2)cc1", "values": [{"measurement": "inhibition", "setting": "[1]", "result": 0.197, "unit": "%"}]}, {"smiles": "O=Cc1ccc(N2CCC(C(=O)NCc3ccc(Cl)cc3F)CC2)cc1", "values": [{"measurement": "inhibition", "setting": "[1]", "result": 9.63, "unit": "%"}]}, {"smiles": "CCn1ccnc(N[C@@H](Cc2c[nH]c3ccccc23)C(=O)NCc2ccccc2)c1=O", "values": [{"measurement": "inhibition", "setting": "Thailand/16681/1984, Concentration 49.5 uM, Number of replicates 2.0, Standard deviation 0.13681414935666844 %", "result": 1.31, "unit": "%"}, {"measurement": "inhibition", "setting": "Thailand/16681/1984, Concentration 99.01 uM, Number of replicates 2.0, Standard deviation 0.09232570623620616 %", "result": 2.85, "unit": "%"}, {"measurement": "inhibition", "setting": "Thailand/16681/1984, Concentration 198.0 uM, Number of replicates 2.0, Standard deviation 0.24588269116382727 %", "result": 6.39, "unit": "%"}]}, {"smiles": "O=Cc1ccc(N2CCC(C(=O)N3CCc4cc(Cl)ccc4C3)CC2)cc1", "values": [{"measurement": "inhibition", "setting": "[1]", "result": 9.95, "unit": "%"}]}, {"smiles": "COc1cc(COCc2c(F)cccc2F)nc(N2CCNCC2)n1", "values": [{"measurement": "inhibition", "setting": "Thailand/16681/1984, Concentration 49.5 uM, Number of replicates 2.0, Standard deviation 2.0165327414494323 %", "result": -0.373, "unit": "%"}, {"measurement": "inhibition", "setting": "Thailand/16681/1984, Concentration 99.01 uM, Number of replicates 2.0, Standard deviation 2.63299741441039 %", "result": -0.319, "unit": "%"}, {"measurement": "inhibition", "setting": "Thailand/16681/1984, Concentration 198.0 uM, Number of replicates 2.0, Standard deviation 2.6878044175706832 %", "result": 0.43, "unit": "%"}]}, {"smiles": "CC(C)[C@H](NC(=O)C1CCN(c2ccc(C=O)cc2)CC1)c1ccccn1", "values": [{"measurement": "inhibition", "setting": "[1]", "result": 12.8, "unit": "%"}]}, {"smiles": "COc1ncc(Br)cc1NC(=O)C1CCN(c2ccc(C=O)cc2)CC1", "values": [{"measurement": "inhibition", "setting": "[1]", "result": 12.1, "unit": "%"}]}]}
